Test results reported in publication PMC4336329 (PLoS ONE, 2015).
The whole screen tested about 310,000 compounds, of which about 2,200 (0.71%) showed an effect of 50% or more. Effects have a minus sign here. Some of the results follow.

The compounds below were run against human ether-à-go-go-related gene (hERG) potassium channel (human, UniProt Q12809) (assay: primary screen, population patch clamp on CHO cells stably expressing hERG).
Sequence of human ether-à-go-go-related gene (hERG) potassium channel (Q12809 whole entry, looked up): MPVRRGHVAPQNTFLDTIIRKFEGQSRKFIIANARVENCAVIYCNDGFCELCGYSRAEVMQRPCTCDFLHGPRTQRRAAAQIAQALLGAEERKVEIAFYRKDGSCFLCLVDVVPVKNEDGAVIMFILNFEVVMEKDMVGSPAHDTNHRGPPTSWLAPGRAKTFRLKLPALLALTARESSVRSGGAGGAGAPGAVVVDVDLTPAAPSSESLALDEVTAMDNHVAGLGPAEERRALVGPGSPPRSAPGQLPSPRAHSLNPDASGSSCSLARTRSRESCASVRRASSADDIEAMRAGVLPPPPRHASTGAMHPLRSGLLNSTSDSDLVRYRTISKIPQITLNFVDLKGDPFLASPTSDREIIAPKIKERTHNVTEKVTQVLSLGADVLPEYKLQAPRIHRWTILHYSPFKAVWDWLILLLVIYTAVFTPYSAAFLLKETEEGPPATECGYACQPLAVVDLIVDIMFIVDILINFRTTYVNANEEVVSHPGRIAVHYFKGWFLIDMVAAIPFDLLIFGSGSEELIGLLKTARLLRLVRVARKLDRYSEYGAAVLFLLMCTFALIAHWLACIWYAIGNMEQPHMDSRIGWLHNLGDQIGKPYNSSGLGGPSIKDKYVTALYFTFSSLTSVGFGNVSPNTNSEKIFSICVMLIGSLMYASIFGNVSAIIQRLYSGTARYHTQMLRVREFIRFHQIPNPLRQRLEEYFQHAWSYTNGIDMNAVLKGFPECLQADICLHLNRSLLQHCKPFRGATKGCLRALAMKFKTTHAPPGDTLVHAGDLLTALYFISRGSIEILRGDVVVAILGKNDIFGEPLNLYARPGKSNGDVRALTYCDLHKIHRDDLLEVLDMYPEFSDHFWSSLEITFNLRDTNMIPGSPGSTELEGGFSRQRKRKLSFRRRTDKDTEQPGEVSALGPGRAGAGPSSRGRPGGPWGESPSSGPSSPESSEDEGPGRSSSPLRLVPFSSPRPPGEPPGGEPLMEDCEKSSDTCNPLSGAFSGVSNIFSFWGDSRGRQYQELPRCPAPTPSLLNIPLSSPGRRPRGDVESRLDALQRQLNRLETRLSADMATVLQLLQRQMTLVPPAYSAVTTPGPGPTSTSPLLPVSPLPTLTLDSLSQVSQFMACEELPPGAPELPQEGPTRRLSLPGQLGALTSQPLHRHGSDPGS

SMILES	hERG current change (%, negative = inhibition) at 1uM [%]
O=Nc1c(-c2cccc([N+](=O)[O-])c2)nc2ncccn12	17.1
Cc1nn(Cc2c(Cl)cccc2Cl)c(Cl)c1/C=C/C(=O)OCC(=O)NCC(F)(F)F	6.81
Cc1nc2cc(NC(=O)CSc3nc4c(C)cccc4cc3C#N)ccc2s1	16.7
COc1ccccc1N1CCN(C(=O)Cn2nc(C(F)(F)F)c3c2CCC3)CC1	12
CCOC(=O)CSc1n[nH]c(=O)n1CCc1ccccc1	4.16
FC(F)(F)c1cccc(Oc2ccc3c(C(F)(F)F)cc(C(F)(F)F)nc3n2)c1	6.61
CCCN1CCN(C(=O)Cn2ncc3c([nH]c4ccc(C)cc43)c2=O)CC1	12.7
COc1cccc(CNC(=O)c2c(C)nn(-c3ccccc3)c2C)c1	15.1
COC(C(=O)N/N=C/c1ccc(OCC(=O)N2CCOCC2)cc1)c1ccccc1 (centres unmarked)	15
CN(Cc1ccccc1)C(=O)c1[nH]cnc1C(=O)NCc1ccc(CNC(=O)OC(C)(C)C)cc1	16
CCN(Cc1nc2ccccc2c(=O)[nH]1)C(=O)COc1ccccc1-c1ccccc1	11.5
O=c1c2cc3c(nc2[nH]c(=S)n1-c1ccccc1)CCCC3	7.73
CCOc1ccccc1NC(=O)c1cccc(NC2=NC3CS(=O)(=O)CC3S2)c1 (centres unmarked)	8.57
COC(=O)c1cc(Br)c(=O)n(Cc2cccnc2)c1	16.4
CC(C)CC(CO)N1CCN(C(=O)c2ccc(C(C)(C)C)cc2)CCC1=O (centres unmarked)	15.8
CC(=O)NC(Cc1ccc(F)cc1)C(=O)NC1CCN(C(=O)Nc2ccccc2C)CC1 (centres unmarked)	7.49
COC(=O)Cn1c(CCS(=O)(=O)c2ccc(C)c(C)c2)nc2ccccc21	13.8
COc1cc(/C=N/NC(=O)c2ccc(CSc3nncn3C)cc2)cc(OC)c1O	6.17
Cc1nc(SCC(C)C)[nH]c(=O)c1Cc1ccccc1	4.63

SMILES	hERG current change (%, negative = inhibition) at 1uM [%]
COC(=O)c1ccc(CNC(=O)CSc2nnc(COc3ccccc3)n2C)o1	-0.261
COc1ccc(-c2nc3ccc([N+](=O)[O-])cc3[nH]2)cc1	17
Cc1cc(NC(=O)COC(=O)c2cc(S(=O)(=O)N(C)c3ccccc3)ccc2Cl)no1	14
O=S(=O)(Cc1nnnn1-c1ccccc1)c1ccc(Cl)cc1	18.7
COc1cc(OC)c(/C=N/NC(=O)COc2cccc3cccnc23)c(OC)c1	12.7
O=C(c1cc(-c2cccs2)on1)N1CCCCC1	6.81
O=C(NC1CCCCC1)N1CCCc2ccccc21	3.81
CC/C(=N\NC(=O)CSc1ncccn1)c1ccc2c(c1)OCCO2	10.3
CON(C)S(=O)(=O)c1ccc2c(c1)N(Cc1ccc(C)cc1)C(=O)C1CCCN21 (centres unmarked)	14.1
C=CCn1c(SC)nnc1-c1cccc([N+](=O)[O-])c1	1.48
C=CCNC(=O)c1ccccc1NC(=O)c1ccccc1	12.7
Cc1nn(CC(=O)N2CCN(C)CC2)c(=O)c2ccccc12	2.44
COC(=O)N/N=C/c1ccc(Oc2ccccc2)cc1	3.75
COc1ccc(NC(=O)COc2ccc(C(=O)c3ccc(F)cc3)cc2)cc1S(N)(=O)=O	14.7
CCOC(=O)c1c(NC(C)=O)sc2c1CCC(C=O)=C2Sc1ccccc1	3.5
COc1ccc(Cc2noc(CN3CCCC(C(=O)c4cccs4)C3)n2)cc1OC (centres unmarked)	9.47
CC(C)(C)c1cc(C(=O)O)nn1-c1ccccc1	13.6
CCn1cc([N+](=O)[O-])c(C(=O)Nc2ccc(Br)cn2)n1	-14.8
O=C(Nc1ccnn1C1CCN(CCCC2CCCC2)CC1)c1ccccc1	-60.9

SMILES	hERG current change (%, negative = inhibition) at 1uM [%]
CCOc1cc(/C=C2\C(=O)ON=C2c2ccccc2)ccc1OC	17.4
COc1cc(OC)cc(-c2nnc(Sc3ccc(C=O)cc3[N+](=O)[O-])o2)c1	0.431
Cc1cccc(N2CC(c3nc4ccccc4n3C)CC2=O)c1C (centres unmarked)	2.01
c1ccc(CSc2nnnn2-c2ccccc2)cc1	9.14
COc1ccc(-c2noc(CCC(=O)NCC3CCN(Cc4cccc(C)c4)CC3)n2)cc1	-35.5
CCCn1c(C(O)c2ccc(OC)cc2)nc2ccccc21 (centres unmarked)	10.6
N#CCCN(C(=O)CSc1ncccn1)c1ccc2c(c1)OCCO2	3.53
COc1ccccc1C(=O)NCCC(=O)NNC(=O)Cn1ccc(C(F)(F)F)n1	-0.724
CC(C)(Cc1nc2ccccc2[nH]1)C(=O)O	-3.82
COc1ccc(/C=C2\N=C(C)N(c3ccc4ccccc4c3)C2=O)cc1OC	2.16
COc1ccc2ccn(C)c2c1	10.9
Cc1cccn2c(=O)c(/C=N/O)c(N3CCCCC3)nc12	4.69
COc1cc2c(cc1NC(=O)CN1CCN(S(=O)(=O)c3ccc(F)cc3)CC1)oc1ccccc12	7.76
CCN1CCN(CCCNC(=O)CCC(=O)N2CC(C)Oc3ccc(C)cc32)CC1 (centres unmarked)	6.55
COc1ccc(N(C(=O)c2ccc(Br)o2)C2C=CS(=O)(=O)C2)cc1 (centres unmarked)	-10.1
NC(=O)C1CCN(c2ncnc3c2c(-c2ccccc2)cn3-c2ccccc2)CC1	10.2
C=CCc1cccc(/C=N/NC(=O)CCCNc2ccc(C)cc2)c1O	11.9
CC(=O)c1ccc(NC(=S)NCCc2ccc(S(N)(=O)=O)cc2)cc1	15.7
